Source: PubChem BioAssay AID1671194 (National Center for Advancing Translational Sciences (NCATS), 2021)
The campaign covered roughly 140,000 compounds. About 240 (0.17%) were called active. Inconclusive means that the source gave no clear call. Such entries were picked first, then a sample of the others. The call rests on the fitted dose curve; in most records, active means well fitted inhibition curve with a large enough effect; inconclusive means small, poorly fitted or top-dose-only effect; inactive means no such curve, though single readings can be large or run the other way. A potency beside an inconclusive call is a rough fit, not a confirmed value.

Experiment: Primary qHTS assay for inhibitors of alpha-synuclein gene (SNCA) expression; further: nearly all actives have a fitted effect of over 45% in size;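 on activity change, negative = inhibition: plate controls were DMSO cells for no effect and cell-free wells for full effect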
Conditions: HEK-293 SNCA-luciferase knock-in, luminescence, 24 h; activity change, negative = inhibition: at 57.2 µM (top of the series) unless noted
Potency means the concentration at half of the fitted maximal effect; tags describe the fitted curve by direction and shape.

Row | SMILES | activity change, negative = inhibition | Potency
1 | COc1ccc(-c2cc(N3CCCC(NC(=O)c4ccc(F)c(F)c4)C3)n[nH]2)cc1 (stereo not drawn) | inactive: 35.1% | 
2 | COc1ccccc1CN[C@H]1CC(C)(C)[C@@H]2C[C@@](C)(O)CC[C@]12CCC(=O)NCCc1c[nH]c2ccccc12 |  | inconclusive: 25.1 µM [inhibitor, single point]
3 | Cc1nc2n(c1C(=O)NCC1CC1)CCC(Nc1ccc(F)cc1)C2 (stereo not drawn) | inactive: -10.1% [at 87.6 µM] | 
4 | Cc1ccc(S(=O)(=O)N(CC(=O)Nc2ccc(C(C)C)cc2)Cc2ccccc2)cc1 |  | inconclusive: 39.8 µM [inhibitor, single point]
5 | Cc1ccc(F)cc1-c1ccc(COc2ccc3c(cnn3CCC(=O)O)c2)cc1 |  | inconclusive: 2.82 µM [inhibitor, partial curve, poor fit]
6 | O=C(N[C@@H]1CN(Cc2cccnc2)C[C@H]1CO)c1cccnc1 |  | inconclusive: 3.55 µM [inhibitor, full curve]
7 | CCCNC(=O)c1ccc2c(c1)N=C(C)c1c(C)ccc(C)c1S2 | inactive: -5.01% | 
8 | CCOC(=O)C1CCN(C(=O)c2cc3ccc4cccnc4c3[nH]2)CC1 |  | inconclusive: 39.8 µM [inhibitor, single point]
9 | COc1ccccc1NC(=O)NCC1CCN(Cc2cccnc2)C1 (stereo not drawn) |  | inconclusive: 10 µM [inhibitor, partial curve, poor fit]
10 | CCOc1ccc(CCNC(=O)C2CCN(c3ncnc4c3nc3n4CCCCC3)CC2)cc1 |  | inconclusive: 7.94 µM [inhibitor, single point]
11 | O=C1NCc2ccccc2CC12CCCN2Cc1cc(F)ccc1F (stereo not drawn) | inactive: -33.4% | 
12 | O=C(Nc1ccccc1F)c1nc(S(=O)(=O)Cc2ccccc2F)ncc1Cl |  | inconclusive: 22.4 µM [inhibitor, partial curve, poor fit]
13 | CC(C)(C)OC(=O)N1CCC(c2c(C(=O)NCCN3CCC(Cc4ccccc4)CC3)cnn2-c2cccc(Cl)c2)CC1 |  | inconclusive: 39.8 µM [inhibitor, single point]
14 | CCNc1ncc(C(=O)N[C@H](C2CCNCC2)C2CC(O)C2)cn1 (stereo partly drawn) | inactive: -2.16% | 
15 | CCCNc1cc(N2CCC(CCC(=O)Nc3ccc4c(c3)OCCO4)CC2)ncn1 |  | inconclusive: 14.1 µM [inhibitor, partial curve, poor fit]
16 | Cc1ncsc1CN1CCCCC1c1nc(CCOc2ccc(F)cc2)no1 (stereo not drawn) |  | inconclusive: 44.7 µM [inhibitor, single point]
17 | c1cn(-c2ncnc3ccc(-c4ccoc4)cc23)cn1 |  | inconclusive: 14.1 µM [inhibitor, partial curve, poor fit]
18 | CC(C)CNC(=O)c1ccc2nc(-c3ccccn3)oc2c1 |  | inconclusive: 39.8 µM [inhibitor, single point]
